Reference: PubChem BioAssay AID1030 (National Center for Advancing Translational Sciences (NCATS), 2008)
In all, about 220,000 compounds went through this assay and about 16,000 (7.3%) were called active. This list was built around the results that the source calls inconclusive (neither active nor inactive); the mix of calls is not that of the screen. The call rests on the fitted dose curve; in most records, active means well fitted inhibition curve with a large enough effect (not every such curve was filed as active); inconclusive means small, poorly fitted or top-dose-only effect, or another doubt; inactive means no such curve, though single readings can be large or run the other way. No potency is given beside an inconclusive call; the fits are too rough.

Target: Aldehyde dehydrogenase 1A1 (Homo sapiens) (UniProt P00352)
Assay: qHTS Assay for Inhibitors of Aldehyde Dehydrogenase 1 (ALDH1A1);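 on activity, negative = inhibition: plate controls were no enzyme wells and a reference inhibitor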
Details: Purified ALDH1A1, NADH fluorescence, propionaldehyde substrate; series mostly up to 75.3 µM; activity, negative = inhibition: at the top concentration
Potency means the concentration at half of the fitted maximal effect; tags describe the fitted curve by direction and shape.

Chain of UniProt P00352 (P00352 whole entry, looked up): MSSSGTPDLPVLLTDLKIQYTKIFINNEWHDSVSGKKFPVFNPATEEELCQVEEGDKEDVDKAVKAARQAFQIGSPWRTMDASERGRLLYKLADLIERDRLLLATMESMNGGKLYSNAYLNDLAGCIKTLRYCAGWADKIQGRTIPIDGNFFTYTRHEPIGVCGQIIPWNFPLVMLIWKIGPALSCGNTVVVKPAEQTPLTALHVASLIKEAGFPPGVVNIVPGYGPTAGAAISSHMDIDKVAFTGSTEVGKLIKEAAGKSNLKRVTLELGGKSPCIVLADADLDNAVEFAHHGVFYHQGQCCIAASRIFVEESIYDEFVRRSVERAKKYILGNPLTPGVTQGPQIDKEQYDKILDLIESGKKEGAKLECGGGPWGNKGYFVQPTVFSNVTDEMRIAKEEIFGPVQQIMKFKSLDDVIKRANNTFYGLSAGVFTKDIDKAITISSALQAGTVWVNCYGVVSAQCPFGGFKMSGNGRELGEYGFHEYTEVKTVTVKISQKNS

Row | SMILES | activity, negative = inhibition | Potency
1 | COc1ccc(/C=N/Nc2nonc2N)c(OC)c1 | inactive: 7.55% | 
2 | C/C(=N\Nc1cccc2cccnc12)c1ccc(N)cc1 |  | active: 8.91 µM
3 | CCOC(=O)c1c(NC(=O)Cc2cccs2)sc(C(=O)N2CCCCC2)c1C |  | active: 2.51 µM
4 | CC(=O)OC[C@@H]1O[C@@H](O/N=C2/C[C@@H](O)[C@@H](O)[C@@H]3[C@H]4C(=O)N(c5ccc(F)cc5F)C(=O)[C@@H]4CC[C@@H]23)[C@H](OC(C)=O)[C@H](OC(C)=O)[C@@H]1OC(C)=O | inactive: -10.9% [at 13.5 µM] | 
5 | CC(C)CCC1CC(CSC(=N)N)OC1=O (stereo not given) | inactive: 0.886% | 
6 | COc1ccc(OC)cc1 | inactive: -5.55% | 
7 | C=CCn1cc(C(=O)NCc2cccnc2)c(=O)c2cc(S(=O)(=O)N(CC)CC)ccc21 |  | inconclusive [inhibitor, single point]
8 | COCCNC(=O)CN(C(=O)Cn1nnc2ccccc21)c1cccc(C)c1C | inactive: -2.25% | 
9 | O=C(NC1CCCCC1)C(=S)N1CCOCC1 |  | active: 23.8 µM
10 | c1ccc(CNc2nc(-c3ccoc3)nc3ccccc23)cc1 |  | active: 31.6 µM
11 | CC(C)C(C)(C)C(C)(C)C(C)(C)S |  | inconclusive [inhibitor, single point]
12 | CCCCNS(=O)(=O)c1ccc2nc(SCC(=O)N3CC(C)OC(C)C3)[nH]c2c1 (stereo not given) |  | inconclusive [inhibitor, single point]
13 | COC(=O)/C(=N\Nc1ccccc1)Sc1nnc(-c2ccc(OC)cc2)n1C | inactive: -9.16% | 
14 | Cn1nc(C(F)(F)F)c2cc(NC(=O)OCC(C)(C)C)sc21 |  | inconclusive [inhibitor, single point]
15 | CC(CCc1ccccc1)NC(=O)CSc1nc(N)cc(N)n1 (stereo not given) | inactive: -0.746% | 
16 | COc1ccc(-c2nc3oc4cc(OC)ccc4c(=O)c3c(=O)n2Cc2ccco2)cc1 |  | inconclusive [inhibitor, partial curve]
17 | CC(C)[C@H](Nc1nc(-c2ccccc2)nc2c1oc1ccccc12)C(=O)O |  | active: 1.12 µM
18 | CC(=O)N1CCc2c(sc(NC(=O)c3ccc([N+](=O)[O-])o3)c2C#N)C1 |  | active: 3.16 µM
19 | NS(=O)(=O)c1cccc(NC(=O)CN2CCCc3ccccc32)c1 |  | inconclusive [inhibitor, single point]
20 | CSc1ccccc1NC(=O)c1ccoc1C |  | inconclusive [inhibitor, single point]
21 | Cc1nc2ccccc2c2oc(C(=O)N3CCc4ccccc4C3)cc12 |  | active: 25.1 µM
22 | O=C(Nc1ccccc1OC(F)F)c1oc2ccccc2c1COc1ccccc1 |  | inconclusive [inhibitor, single point]
23 | CCc1noc(C)c1C(=O)Nc1sc(C(=O)N(C)C)c(C)c1C(=O)OC | inactive: -8.73% | 
24 | COc1ccc(NC(=O)C(c2ccc(OC)cc2)N(C)C(=O)Cc2cccs2)cc1 (stereo not given) |  | inconclusive [inhibitor, partial curve]
25 | Cc1[nH]n(C(N)=S)c(=O)c1N=Nc1ccc2ccccc2c1 |  | active: 7.94 µM

Row | SMILES | activity, negative = inhibition | Potency
26 | C=CCSc1nc2ccsc2c(=O)n1-c1ccccc1 |  | inconclusive [inhibitor, single point]
27 | CCCCn1c(=O)c2c(O)cc(=O)oc2c2ccccc21 |  | active: 15.8 µM
28 | Cc1onc(-c2ccccc2Cl)c1-c1nc(-c2ccccn2)no1 |  | inconclusive [inhibitor, partial curve]
29 | O=C1C2C3c4ccccc4C(c4ccccc43)C2C(=O)N1CN1CCOCC1 (stereo not given) |  | inconclusive [inhibitor, single point]
30 | CC(=O)CCc1c(C)nc2ccc(C(=O)O)cc2c1Cl |  | inconclusive [inhibitor, single point]
31 | O=C(CC1SC(=NCCc2ccccc2)N(/N=C/c2cccs2)C1=O)Nc1ccc(Cl)cc1 (stereo not given) | inactive: -5.41% | 
32 | CCCOc1ncnc2c1[nH]c1ccc(OC)cc12 |  | inconclusive [inhibitor, single point]
33 | CC(C)(Oc1ccc(Cl)cc1)C(=O)NC1CCSC1=O (stereo not given) | inactive: -0.062% | 
34 | O=C(c1ccc(Cl)s1)N1CCOCC1 | inactive: 5.45% | 
35 | O=C(NCc1ccco1)c1cc2ccc(O)cc2oc1=O |  | inconclusive [inhibitor, full curve]
36 | COc1ccc(C(=O)NC2=NCCS2)cc1S(=O)(=O)N1CCCCC1C (stereo not given) | inactive: -4.37% | 
37 | CSCCC(NC(=O)c1ccccc1)C(=O)O (stereo not given) | inactive: 5.4% | 
38 | CCOc1ccc(S(=O)(=O)Nc2ccc(S(=O)(=O)N3CCCCC3)cc2)cc1 |  | active: 2.24 µM
39 | CN(C)c1ccc2c3c(cccc13)C(=O)N(c1ccccc1)C2=O | inactive: 5.49% | 
40 | NC(=O)NNC1=Nc2cccc3cccc1c23 | inactive: -1.03% | 
41 | Cc1cc(CNCc2cn(C)nc2-c2ccc(Oc3ccccc3)cc2)on1 |  | inconclusive [inhibitor, partial curve]
42 | COc1cccc(C(=O)CSc2nnc(CNS(C)(=O)=O)n2-c2ccc(C)cc2)c1 |  | inconclusive [inhibitor, single point]
43 | COc1cc(OC)cc(-c2cc3nc4c(c(N5CCN(c6ncccn6)CC5)n3n2)CCCC4)c1 |  | inconclusive [inhibitor, partial curve]
44 | COc1ccc(C)cc1N=Nc1ccc(O)c2ncccc12 | inactive: -3.54% | 
45 | O=C(O)c1ccc(N2C(=O)/C(=C/C=C/c3ccccc3)SC2=S)cc1 |  | inconclusive [inhibitor, single point]
46 | Cc1[nH]n(-c2cccc(Cl)c2)c(=O)c1/C=N/n1c(C)nc2ccccc2c1=O |  | inconclusive [inhibitor, single point]
47 | CCC(=NCCc1c(C)[nH]c2ccccc12)C1=C(O)CC(c2ccccc2)CC1=O (stereo not given) |  | inconclusive [inhibitor, single point]
48 | CCNC(=S)N1CCN(c2cccc(C(F)(F)F)c2)CC1 | inactive: 8.1% | 
49 | CCn1c(O)c(/C=C2\C=Nc3ccccc32)sc1=O |  | inconclusive [inhibitor, partial curve]
50 | C=CCOC(=O)C(C(C)=O)C(NC(=O)OC)c1ccco1 (stereo not given) | inactive: 11.4% [at 13.5 µM] | 
